Measurements: patent US20260265384A1 (JOINT STOCK COMPANY BIOCAD, published 2026)

B1: anti-AXL antibody 01_004 (antibody, human IgG1, kappa)
heavy: QVQLVQSGGGVVQPGRSLRLSCAASGFSFSFFGIHWIRQAPGKGLEWVAFTSRDGNDKYYADSVKGRFTISKDNSKNTVYLQMNSLRAEDTAVYYCGRGNLAFDIWGEGTLVTVSS[human IgG1 constant region omitted here]
light: DIVMTQSPDSLTASAGERATINCKSSQSVLLSANQKNYLAWYQQKPGQSPRLLIYWASTRESGVPDRFSGSGSGTDFTLTISNLQPEDAAVYYCHQGYTLPWTFGSGTKVEIKRTVAAPSVFIFPPSDEQLKSGTASVVCLLNNFYPREAKVQWKVDNALQSGNSQESVTEQDSKDSTYSLSSTLTLSKADYEKHKVYACEVTHQGLSSPVTKSFNRGEC
notes: Full-length bivalent IgG1, kappa light chain; the two C-terminal residues GK of the heavy chain are deleted; Made in CHO-K1-S cells in medium with deoxy-2-fluoro-L-fucose; also called candidate 01_004
B2: anti-AXL antibody 01_004_2 (antibody, human IgG1, kappa)
heavy: QVQLVQSGGGVVQPGRSLRLSCAASGFSFSFFGIHWIRQAPGKGLEWVAFTSRDGNDKYYADSVKGRFTISKDNSKNTVYLQMNSLRAEDTAVYYCGRGNLAFDIWGEGTLVTVSSASTKGPSVFPLAPSSKSTSGGTAALGCLVKDYFPEPVTVSWNSGALTSGVHTFPAVLQSSGLYSLSSVVTVPSSSLGTQTYICNVNHKPSNTKVDKRV[human IgG1 Fc with changes omitted here]
light: B1 light
notes: The Fc carries S239D and I332E (EU numbering), and the C-terminal GK is deleted

What was measured:
[1] = molecular target: T1, AXL-Ig1, human AXL extracellular domain Ig-like C2-type 1 fused by a linker to IgG1 Fc (human); assay: ELISA, antigen coated at 1 µg/ml, antibody at 1 µg/ml, anti-human Fab-HRP detection, OD 450 nm with 540 nm correction
T1 chain: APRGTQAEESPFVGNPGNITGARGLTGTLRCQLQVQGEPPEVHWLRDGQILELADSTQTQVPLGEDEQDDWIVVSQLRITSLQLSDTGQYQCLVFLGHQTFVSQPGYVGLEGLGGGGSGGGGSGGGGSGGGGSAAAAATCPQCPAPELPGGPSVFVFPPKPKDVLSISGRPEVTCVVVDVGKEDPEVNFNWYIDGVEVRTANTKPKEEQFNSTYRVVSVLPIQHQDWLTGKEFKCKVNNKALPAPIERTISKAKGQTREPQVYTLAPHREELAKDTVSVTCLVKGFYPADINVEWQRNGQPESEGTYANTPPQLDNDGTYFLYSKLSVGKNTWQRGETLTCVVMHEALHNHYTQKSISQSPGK
Procedure: (§1) Antigens (ExcAXL, AXL-Ig1, AXL-Ig2, AXL-Ig1-Ig2) were immobilized in wells of a high-absorption 96-well plate. To this end, to the wells of the plate was introduced 100 μl of antigen solution at a concentration of 1 μg/ml in PBS, the plate was incubated for 16 hours at room temperature.
(§2) Next, the liquid was removed from the wells, the wells were washed with 300 μl of washing buffer solution (1×PBS pH 7.3-7.5, 0.05% Tween-20) and 300 μl/well of blocking buffer solution was added (1×PBS with 1% BSA). The plate was incubated for 1 hour at room temperature. Liquid was removed again and the plate was washed. Then, to the wells of the plate were introduced 100 μl of test antibodies at a concentration of 1 μg/ml in a dilution buffer (1×PBS with 0.1% BSA, 0.05% Tween-20). Next, the plate was incubated with antibodies on a thermal shaker for 1 hour at 37° C., 600 rpm. After incubation, liquid was removed, the plate was washed and 100 μl of anti-human Fab-HRP antibodies in a dilution buffer were added. After incubation on a thermal shaker at 37° C. and 600 rpm, the plate was washed for an hour and 100 μl of reaction substrate (0.083 mg/ml TMB, 0.02% H₂O₂) in an acetate buffer solution (0.05M, pH 5.5) was added. The plate was incubated at room temperature for 10-15 minutes. The reaction was stopped by adding 50 μl of 10% H₂SO₄ to each well of the plate. Optical density values were measured at a wavelength of 450 using 540 nm wavelength correction by means of a plate reader.

[2] = molecular target: T2, AXL-Ig2, human AXL extracellular domain Ig-like C2-type 2 fused by a linker to IgG1 Fc (human); assay: as above
T2 chain: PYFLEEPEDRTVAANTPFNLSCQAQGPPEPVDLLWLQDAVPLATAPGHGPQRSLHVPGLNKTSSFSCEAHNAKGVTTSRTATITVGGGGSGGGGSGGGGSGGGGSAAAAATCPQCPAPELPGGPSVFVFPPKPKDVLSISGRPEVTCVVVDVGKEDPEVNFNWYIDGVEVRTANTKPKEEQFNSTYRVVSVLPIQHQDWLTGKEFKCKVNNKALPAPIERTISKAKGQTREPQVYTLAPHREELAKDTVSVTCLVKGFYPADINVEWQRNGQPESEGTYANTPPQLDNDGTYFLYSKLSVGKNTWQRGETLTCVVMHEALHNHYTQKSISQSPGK
Procedure: as §1, §2

[3] = molecular target: T3, AXL-Ig1-Ig2, human AXL extracellular domains Ig-like C2-type 1 and 2 fused by a linker to IgG1 Fc (human); assay: as above
T3 chain: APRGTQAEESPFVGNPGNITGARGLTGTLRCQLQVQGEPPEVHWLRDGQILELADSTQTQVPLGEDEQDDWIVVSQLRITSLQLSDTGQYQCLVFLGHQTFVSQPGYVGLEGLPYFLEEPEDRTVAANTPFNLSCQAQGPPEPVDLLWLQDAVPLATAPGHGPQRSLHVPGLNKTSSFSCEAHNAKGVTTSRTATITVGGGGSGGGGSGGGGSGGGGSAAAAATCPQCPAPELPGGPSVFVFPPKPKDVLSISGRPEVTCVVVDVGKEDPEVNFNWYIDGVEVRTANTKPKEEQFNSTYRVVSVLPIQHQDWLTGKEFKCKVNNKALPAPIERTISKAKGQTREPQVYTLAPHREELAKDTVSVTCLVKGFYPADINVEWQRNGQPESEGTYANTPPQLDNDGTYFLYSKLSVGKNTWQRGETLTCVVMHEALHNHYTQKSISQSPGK
Procedure: as §1, §2

[4] = molecular target: T4, mouse (Mus musculus) AXL (mouse (Mus musculus), UniProt Q00993 19-443, limits assumed); assay: SPR, Biacore 8K, antigen immobilised on CM5 chip, antibody in solution
T4 sequence (looked up): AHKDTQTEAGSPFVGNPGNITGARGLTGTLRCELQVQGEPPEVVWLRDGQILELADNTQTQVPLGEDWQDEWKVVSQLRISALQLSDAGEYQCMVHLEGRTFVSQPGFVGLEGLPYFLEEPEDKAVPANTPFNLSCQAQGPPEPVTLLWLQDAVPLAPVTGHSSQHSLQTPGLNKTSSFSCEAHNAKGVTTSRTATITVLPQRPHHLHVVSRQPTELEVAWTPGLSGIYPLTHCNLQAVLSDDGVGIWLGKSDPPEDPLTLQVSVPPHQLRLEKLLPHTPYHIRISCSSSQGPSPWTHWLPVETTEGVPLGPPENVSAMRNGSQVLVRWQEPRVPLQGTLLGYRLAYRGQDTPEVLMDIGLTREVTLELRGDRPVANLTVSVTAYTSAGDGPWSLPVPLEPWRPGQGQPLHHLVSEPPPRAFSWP
Procedure: (§3) Constants of binding of antibody 01_004 to various antigens were determined by SPR (surface plasmon resonance) using Biacore 8K (Cytiva). The test antigen was immobilized on Sensor Chip CM5 (Cytiva), followed by analysis of binding thereof to anti-AXL antibody 01_004 in PBS 0.02% Tween-20 pH 7.4. Measurement data was processed using the Biacore Insight Evaluation (Cytiva) software.

[5] = molecular target: T5, cynomolgus (Macaca fascicularis) AXL (cynomolgus (Macaca fascicularis), UniProt A0A2K5WXE0 26-451); assay: SPR, Biacore 8K, antigen immobilised on CM5 chip, antibody in solution; mean value
T5 construct: also called monkey AXL antigen
T5 sequence: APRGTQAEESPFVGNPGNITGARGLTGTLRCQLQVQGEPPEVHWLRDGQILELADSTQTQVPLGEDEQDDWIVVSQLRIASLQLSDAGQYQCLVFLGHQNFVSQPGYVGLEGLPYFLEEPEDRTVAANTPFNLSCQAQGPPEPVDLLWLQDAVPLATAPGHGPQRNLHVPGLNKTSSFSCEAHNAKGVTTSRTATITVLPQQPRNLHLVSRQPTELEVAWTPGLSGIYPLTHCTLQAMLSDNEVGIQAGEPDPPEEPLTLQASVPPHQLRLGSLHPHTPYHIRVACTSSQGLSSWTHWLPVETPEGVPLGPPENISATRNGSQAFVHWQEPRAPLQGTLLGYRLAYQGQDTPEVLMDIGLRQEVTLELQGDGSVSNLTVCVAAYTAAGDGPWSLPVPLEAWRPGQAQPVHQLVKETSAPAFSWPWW
Procedure: as §3

[6] = molecular target: rabbit (Oryctolagus cuniculus) AXL (rabbit (Oryctolagus cuniculus)); assay: as above
Procedure: as §3

[7] = molecular target: T6, Human AXL (human, UniProt P30530 26-449, limits assumed); assay: as above
T6 construct: also called human AXL antigen
T6 sequence (looked up): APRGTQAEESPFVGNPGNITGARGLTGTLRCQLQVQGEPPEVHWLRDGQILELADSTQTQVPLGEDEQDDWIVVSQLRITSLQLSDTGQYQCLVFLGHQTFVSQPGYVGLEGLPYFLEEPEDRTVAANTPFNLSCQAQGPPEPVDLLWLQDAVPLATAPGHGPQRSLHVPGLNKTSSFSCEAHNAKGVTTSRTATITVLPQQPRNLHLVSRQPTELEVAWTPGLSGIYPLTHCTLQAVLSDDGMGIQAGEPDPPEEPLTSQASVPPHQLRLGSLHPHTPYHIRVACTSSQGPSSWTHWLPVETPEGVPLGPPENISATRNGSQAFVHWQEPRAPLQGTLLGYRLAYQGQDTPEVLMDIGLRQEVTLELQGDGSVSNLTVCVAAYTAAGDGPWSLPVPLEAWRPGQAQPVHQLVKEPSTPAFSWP
Procedure: as §3

[8] = molecular target: T7, cynoAXL, Cynomolgus AXL receptor fragment comprising all extracellular domains, fused by a linker to His6- … (Cynomolgus macaque (Macaca fascicularis)); assay: ELISA, antigen coated at 1 µg/ml, antibody titrated, anti-human Fab-HRP detection, OD 450 nm with 540 nm correction
T7 chain: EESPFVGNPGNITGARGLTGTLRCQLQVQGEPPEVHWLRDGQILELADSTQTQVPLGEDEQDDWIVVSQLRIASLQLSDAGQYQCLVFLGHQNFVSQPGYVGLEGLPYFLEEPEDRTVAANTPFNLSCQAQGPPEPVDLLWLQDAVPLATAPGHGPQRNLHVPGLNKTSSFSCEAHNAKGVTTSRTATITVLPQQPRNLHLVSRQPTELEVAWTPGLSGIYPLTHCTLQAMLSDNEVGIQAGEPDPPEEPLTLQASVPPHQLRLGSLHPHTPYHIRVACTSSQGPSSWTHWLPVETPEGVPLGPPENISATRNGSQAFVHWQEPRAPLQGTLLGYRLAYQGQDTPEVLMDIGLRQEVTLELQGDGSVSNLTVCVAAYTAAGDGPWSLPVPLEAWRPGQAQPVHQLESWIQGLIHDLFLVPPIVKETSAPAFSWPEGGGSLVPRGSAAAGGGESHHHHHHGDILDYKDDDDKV
Procedure: (§4) Next, the liquid was removed from the wells, the wells were washed with 300 μl of washing buffer solution (1×PBS pH 7.3-7.5, 0.05% Tween-20) and 300 μl/well of blocking buffer solution was added (1×PBS with 1% BSA). The plate was incubated for 1 hour at room temperature. Liquid was removed again and the plate was washed. Next, to wells of the plate was added 100 μl of antibody 01_004_2, at a concentration as shown in the graph, in dilution buffer (1×PBS with 0.1% BSA, 0.05% Tween-20). Next, the plate was incubated with antibodies on a thermal shaker for 1 hour at 37° C., 600 rpm. After incubation, liquid was removed, the plate was washed and 100 μl of anti-human Fab-HRP antibodies in a dilution buffer were added. After incubation on a thermal shaker at 37° C. and 600 rpm, the plate was washed for an hour and 100 μl of reaction substrate (0.083 mg/ml TMB, 0.02% H₂O₂) in an acetate buffer solution (0.05M, pH 5.5) was added. The plate was incubated at room temperature for 10-15 minutes. The reaction was stopped by adding 50 μl of 10% H₂SO₄ to each well of the plate. Optical density values were measured at a wavelength of 450 using 540 nm wavelength correction by means of a plate reader.

[9] = molecular target: T6, Human AXL; assay: as above
Procedure: as §4

Row | Binder | binding result [1] | binding result [2] | binding result [3] | binding result [4] | Kd [5] | Kd [6] | Kd [7] | EC50 (read off the curve) [8] | EC50 (read off the curve) [9]
1 | B1 | no binding (tested: 1 µg/ml) | binds | binds | no binding | 0.0528 nM | 240 nM | 0.043 nM |  | 
2 | B2 | no binding (tested: 1 µg/ml) | binds | binds |  |  |  |  | ~8 ng/mL | ~8 ng/mL
